T1: PRYSPRY domain of human TRIM21 with N-terminal 6xHis tag (human)
T1 construct: Expressed in E. coli; also called hTRIM21; human TRIM21.PRYSPRY
T1 chain: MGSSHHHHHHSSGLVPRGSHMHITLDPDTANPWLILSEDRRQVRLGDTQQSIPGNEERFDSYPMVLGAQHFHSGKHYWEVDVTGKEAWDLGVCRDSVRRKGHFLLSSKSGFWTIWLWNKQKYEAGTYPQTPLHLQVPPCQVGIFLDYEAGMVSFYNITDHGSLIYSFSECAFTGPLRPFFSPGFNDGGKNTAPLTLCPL

T2: PRYSPRY domain of mouse TRIM21 with N-terminal 6xHis tag (mouse)
T2 construct: Expressed in E. coli; also called mTRIM21; mouse TRIM21.PRYSPRY
T2 chain: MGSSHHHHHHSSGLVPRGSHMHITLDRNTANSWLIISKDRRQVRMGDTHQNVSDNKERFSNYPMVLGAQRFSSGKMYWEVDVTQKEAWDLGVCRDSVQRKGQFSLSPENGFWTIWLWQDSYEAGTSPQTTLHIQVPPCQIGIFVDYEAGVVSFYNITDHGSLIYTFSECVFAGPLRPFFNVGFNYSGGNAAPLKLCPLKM

B1: MRAH-G1d/MRAL-KT0 N315T (antibody, human IgG1, kappa)
heavy: QVQLQESGPGLVRPSQTLSLTCTVSGYSITSDHAWSWVRQPPGRGLEWIGYISYSGITTYNPSLKSRVTMLRDTSKNQFSLRLSSVTAADTAVYYCARSLARTTAMDYWGQGSLVTVSS[human IgG1 constant region with N315T (EU numbers) omitted here]
light: DIQMTQSPSSLSASVGDRVTITCRASQDISSYLNWYQQKPGKAPKLLIYYTSRLHSGVPSRFSGSGSGTDFTFTISSLQPEDIATYYCQQGNTLPYTFGQGTKVEIKRTVAAPSVFIFPPSDEQLKSGTASVVCLLNNFYPREAKVQWKVDNALQSGNSQESVTEQDSKDSTYSLSSTLTLSKADYEKHKVYACEVTHQGLSSPVTKSFNRGEC
notes: copies: 2 + 2
B2: MRAH-G1d/MRAL-KT0 N315V (antibody, human IgG1, kappa)
heavy: QVQLQESGPGLVRPSQTLSLTCTVSGYSITSDHAWSWVRQPPGRGLEWIGYISYSGITTYNPSLKSRVTMLRDTSKNQFSLRLSSVTAADTAVYYCARSLARTTAMDYWGQGSLVTVSS[human IgG1 constant region with N315V (EU numbers) omitted here]
light: B1 light
notes: copies: 2 + 2
B3: MRAH-G1d/MRAL-KT0 N315W (antibody, human IgG1, kappa)
heavy: QVQLQESGPGLVRPSQTLSLTCTVSGYSITSDHAWSWVRQPPGRGLEWIGYISYSGITTYNPSLKSRVTMLRDTSKNQFSLRLSSVTAADTAVYYCARSLARTTAMDYWGQGSLVTVSS[human IgG1 constant region with N315W (EU numbers) omitted here]
light: B1 light
notes: copies: 2 + 2
B4: MRAH-G1d/MRAL-KT0 N315Y (antibody, human IgG1, kappa)
heavy: QVQLQESGPGLVRPSQTLSLTCTVSGYSITSDHAWSWVRQPPGRGLEWIGYISYSGITTYNPSLKSRVTMLRDTSKNQFSLRLSSVTAADTAVYYCARSLARTTAMDYWGQGSLVTVSS[human IgG1 constant region with N315Y (EU numbers) omitted here]
light: B1 light
notes: copies: 2 + 2
B5: MRAH-G1d/MRAL-KT0 N434D (antibody, human IgG1, kappa)
heavy: QVQLQESGPGLVRPSQTLSLTCTVSGYSITSDHAWSWVRQPPGRGLEWIGYISYSGITTYNPSLKSRVTMLRDTSKNQFSLRLSSVTAADTAVYYCARSLARTTAMDYWGQGSLVTVSS[human IgG1 constant region with N434D (EU numbers) omitted here]
light: B1 light
notes: copies: 2 + 2
B6: MRAH-G1d/MRAL-KT0 N434E (antibody, human IgG1, kappa)
heavy: QVQLQESGPGLVRPSQTLSLTCTVSGYSITSDHAWSWVRQPPGRGLEWIGYISYSGITTYNPSLKSRVTMLRDTSKNQFSLRLSSVTAADTAVYYCARSLARTTAMDYWGQGSLVTVSS[human IgG1 constant region with N434E (EU numbers) omitted here]
light: B1 light
notes: copies: 2 + 2
B7: MRAH-G1d/MRAL-KT0 N434G (antibody, human IgG1, kappa)
heavy: QVQLQESGPGLVRPSQTLSLTCTVSGYSITSDHAWSWVRQPPGRGLEWIGYISYSGITTYNPSLKSRVTMLRDTSKNQFSLRLSSVTAADTAVYYCARSLARTTAMDYWGQGSLVTVSS[human IgG1 constant region with N434G (EU numbers) omitted here]
light: B1 light
notes: copies: 2 + 2
B8: MRAH-G1d/MRAL-KT0 N434I (antibody, human IgG1, kappa)
heavy: QVQLQESGPGLVRPSQTLSLTCTVSGYSITSDHAWSWVRQPPGRGLEWIGYISYSGITTYNPSLKSRVTMLRDTSKNQFSLRLSSVTAADTAVYYCARSLARTTAMDYWGQGSLVTVSS[human IgG1 constant region with N434I (EU numbers) omitted here]
light: B1 light
notes: copies: 2 + 2
B9: MRAH-G1d/MRAL-KT0 N434K (antibody, human IgG1, kappa)
heavy: QVQLQESGPGLVRPSQTLSLTCTVSGYSITSDHAWSWVRQPPGRGLEWIGYISYSGITTYNPSLKSRVTMLRDTSKNQFSLRLSSVTAADTAVYYCARSLARTTAMDYWGQGSLVTVSS[human IgG1 constant region with N434K (EU numbers) omitted here]
light: B1 light
notes: copies: 2 + 2
B10: MRAH-G1d/MRAL-KT0 N434L (antibody, human IgG1, kappa)
heavy: QVQLQESGPGLVRPSQTLSLTCTVSGYSITSDHAWSWVRQPPGRGLEWIGYISYSGITTYNPSLKSRVTMLRDTSKNQFSLRLSSVTAADTAVYYCARSLARTTAMDYWGQGSLVTVSS[human IgG1 constant region with N434L (EU numbers) omitted here]
light: B1 light
notes: copies: 2 + 2
B11: MRAH-G1d/MRAL-KT0 N434M (antibody, human IgG1, kappa)
heavy: QVQLQESGPGLVRPSQTLSLTCTVSGYSITSDHAWSWVRQPPGRGLEWIGYISYSGITTYNPSLKSRVTMLRDTSKNQFSLRLSSVTAADTAVYYCARSLARTTAMDYWGQGSLVTVSS[human IgG1 constant region with N434M (EU numbers) omitted here]
light: B1 light
notes: copies: 2 + 2
B12: MRAH-G1d/MRAL-KT0 N434Q (antibody, human IgG1, kappa)
heavy: QVQLQESGPGLVRPSQTLSLTCTVSGYSITSDHAWSWVRQPPGRGLEWIGYISYSGITTYNPSLKSRVTMLRDTSKNQFSLRLSSVTAADTAVYYCARSLARTTAMDYWGQGSLVTVSS[human IgG1 constant region with N434Q (EU numbers) omitted here]
light: B1 light
notes: copies: 2 + 2
B13: MRAH-G1d/MRAL-KT0 N434R (antibody, human IgG1, kappa)
heavy: QVQLQESGPGLVRPSQTLSLTCTVSGYSITSDHAWSWVRQPPGRGLEWIGYISYSGITTYNPSLKSRVTMLRDTSKNQFSLRLSSVTAADTAVYYCARSLARTTAMDYWGQGSLVTVSS[human IgG1 constant region with N434R (EU numbers) omitted here]
light: B1 light
notes: copies: 2 + 2
B14: MRAH-G1d/MRAL-KT0 N434T (antibody, human IgG1, kappa)
heavy: QVQLQESGPGLVRPSQTLSLTCTVSGYSITSDHAWSWVRQPPGRGLEWIGYISYSGITTYNPSLKSRVTMLRDTSKNQFSLRLSSVTAADTAVYYCARSLARTTAMDYWGQGSLVTVSS[human IgG1 constant region with N434T (EU numbers) omitted here]
light: B1 light
notes: copies: 2 + 2

Target: T1, PRYSPRY domain of human TRIM21 with …
Test: SPR, Protein L capture

Binder	hTRIM21 binding level ratio (variant/control antibody)
B1	1.07
B2	1.19
B3	0.982
B4	0.941
B5	0.037
B6	-0.005
B7	0.108
B8	0.632
B9	-0.026
B10	1.22
B11	0.824
B12	0.608
B13	0.399
B14	0.03

Target: T2, PRYSPRY domain of mouse TRIM21 with …
Test: SPR, Protein L capture

Binder	mTRIM21 binding level ratio (variant/control antibody)
B1	2.44
B2	2.51
B3	2.38
B4	2.45
B5	-0.151
B6	-0.117
B7	0.305
B8	0.569
B9	-0.234
B10	2.18
B11	0.771
B12	0.415
B13	-0.045
B14	-0.089

Target: T3, human FcRn (human, UniProt P55899 part only; P61769 part only, limits assumed)
T3 construct: also called hFcRn
Test: SPR, Protein L capture

T3 sequence (P55899 24-290 limits assumed, form in doubt, chain 1 of 2): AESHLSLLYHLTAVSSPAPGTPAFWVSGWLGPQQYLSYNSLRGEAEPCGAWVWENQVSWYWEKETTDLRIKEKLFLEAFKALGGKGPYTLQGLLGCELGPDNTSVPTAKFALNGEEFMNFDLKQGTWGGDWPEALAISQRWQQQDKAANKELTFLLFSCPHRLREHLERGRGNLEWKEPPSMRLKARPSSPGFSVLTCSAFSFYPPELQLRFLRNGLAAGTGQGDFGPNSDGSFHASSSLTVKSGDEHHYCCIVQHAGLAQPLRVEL
T3 sequence (P61769 21-119 limits assumed, form in doubt, chain 2 of 2, further chain): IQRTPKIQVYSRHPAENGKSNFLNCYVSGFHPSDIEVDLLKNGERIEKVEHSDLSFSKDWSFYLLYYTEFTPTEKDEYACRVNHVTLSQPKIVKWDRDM

Binder	hFcRn binding level ratio (variant/control antibody)
B1	0.78
B2	0.92
B3	0.95
B4	0.06
B5	0.04
B6	0.26
B7	1.37
B8	0.03
B9	0.15
B10	0.12
B11	0.27
B12	0.98
B13	0.32
B14	0.66
